Measurements reported in PubChem BioAssay (Tox21).
Inconclusive results, whose numbers are uncertain, are shown with a selection of clear calls. Where a call stands in place of a potency, no number is given. For some assays here: Potencies of inconclusive entries are doubtful fits and often do not repeat. Some structures have more than one record in an assay (separate samples or runs), and their calls can disagree. Active and inactive are the calls of the source. Unless noted, calls follow the shape of the dose curve; as a rule, active = well fitted curve in the direction sought with a large enough effect in the repeat runs; inconclusive = weak or mixed curves; inactive = no such curve, though single readings can be large; an effect the other way counts as inactive or inconclusive.

What was measured:
[1] = target: Nuclear receptor subfamily 1 group I member 2 (Homo sapiens) (UniProt O75469); assay: CYP3A4 induction through human pregnane X receptor (PXR) by small molecules, qHTS assay (AID 1346984); conditions: DPX-2 HepG2 PXR, CYP3A4-luciferin luminescence, 24 h; activation: at 46.1 µM (top of the series) unless noted; also: potency is read from the fitted curve at half-maximal effect; nearly all actives have a fitted effect of over 40% in size
How it was run: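 Readings come from a luciferase reporter: DPX-2 cells, which are HepG2 cotransfected with PXR and a CYP3A4-promoter construct, were exposed to test compounds for 24 h at 37C before One-Glo detection.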

[2] = target: Nuclear receptor subfamily 1 group I member 2 (Homo sapiens) (UniProt O75469); assay: Human pregnane X receptor (PXR) activation by small molecules, qHTS assay (AID 1346985); also: potency is read from the fitted curve at half-maximal effect; nearly all actives have a fitted effect of over 40% in size
How it was run: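 DPX-2 cells (HepG2 co-transfected with a PXR response element and a CYP3A4-promoter luciferase construct) were seeded at 2,000 per well, rested 5 hr at 37C, then exposed to DMSO-dissolved compounds for 24 hr. Activation was read as luciferase luminescence.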

[3] = qHTS RealTime-Glo MT Cell Viability Assay in HepG2 cells - 16 hour (AID 1224885); also: nearly all actives have a fitted effect of over 50% in size
How it was run: (§1)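 HepG2 cells were seeded at 600 cells/well together with NanoLuc luciferase and a cell-permeant prosubstrate, preincubated 5 h at 37 C/5% CO2, then pin-dosed with compounds in DMSO. Nonlytic luminescence from viable cells was read at each time point.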

[4] = qHTS RealTime-Glo MT Cell Viability Assay in HepG2 cells - 0 hour (AID 1224889); also: nearly all actives have a fitted effect of over 50% in size; also: potency is read from the fitted curve at half-maximal effect
How it was run: as §1

[5] = qHTS assay to test for compound auto fluorescence at 460 nm (blue) in HEK293 cells (AID 720678); also: potency is read from the fitted curve at half-maximal effect
How it was run: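 HEK293 cells (2,000 per well, medium with 10% dialyzed FBS) attached for 4-5 hr at 37C, then received compound and stood overnight at 37C, 5% CO2. Blue fluorescence was read at Ex/Em 405/460 nm and expressed relative to triamterene.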

[6] = qHTS assay to identify small molecule agonists of the sonic hedgehog signaling (Shh) pathway (AID 1259368; calls by dose curve; also: potency is read from the fitted curve at half-maximal effect; nearly all actives have a fitted effect of over 15% in size)
How it was run: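 A Gli1 transcriptional response element controlled firefly luciferase in 3T3Gli1-Luc cells. Compounds and a positive control were added 4 hr after plating, and cells were incubated a further 24 hr at 37 C before luminescence detection.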

[7] = qHTS assay to test for compound auto fluorescence at 460 nm (blue) in HEK293 cell free culture (AID 720681); also: potency is read from the fitted curve at half-maximal effect
How it was run: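 Blue fluorescence (Ex 405/Em 460 nm, triamterene-equivalent) was read immediately after pin transfer of compound or DMSO into medium (DMEM, 10% FBS) without cells.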

[8] = target: Thyrotropin-releasing hormone receptor (Homo sapiens) (UniProt P34981); assay: qHTS assay to identify small molecule antagonists of the thyrotropin-releasing hormone receptor (TRHR) signaling pathway (AID 1346877; active = well fitted inhibition curve with a large enough effect in the repeat runs, not every such curve was filed as active; inconclusive = weak or mixed curves)
How it was run: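 Following an 18 h incubation at 37 °C and a 2 h calcium dye load, TRHR-HEK293 cells were exposed to compound (5 min, room temperature) and challenged with TRH, 1 nM final.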

[9] = Caspase-3/7 induction in CHO-K1 cells by small molecules, qHTS assay (AID 1346980); also: nearly all actives have a fitted effect of over 15% in size
How it was run: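 Luminescent Caspase-Glo 3/7 read (30min, room temperature) quantified apoptosis induction. Cells were wild-type CHO-K1, treated with compound for 17hr at 37 C and 5% CO2.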

[10] = target: Estrogen receptor (Homo sapiens) (UniProt P03372); assay: qHTS assay to identify small molecule agonists of the estrogen receptor alpha (ER-alpha) signaling pathway in the presence of an antagonist (AID 1259383; calls by dose curve; also: potency is read from the fitted curve at half-maximal effect; nearly all actives have a fitted effect of over 15% in size)
How it was run: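 Stably transfected VM7Luc4E2 reporter cells, kept 5 days in charcoal-stripped serum, received ICI-182,780 at 10.0nM final before compound addition. Following 22hr incubation at 37C and 5% CO2, luciferase signal was read by luminescence.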

[11] = target: Nuclear receptor subfamily 1 group I member 2 (Rattus norvegicus) (UniProt Q9R1A7); assay: Rat pregnane X receptor (rPXR) activation by small molecules, qHTS assay (AID 1346983); conditions: rPXR luciferase reporter cells, One-Glo luminescence, 24 h; max activation: stronger effect = higher value; also: potency is read from the fitted curve at half-maximal effect; nearly all actives have a fitted effect of over 20% in size
How it was run: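 Luminescent readout (One-Glo luciferase, 30 min room temperature) followed 24 hr compound treatment at 37 C of rPXR cells plated 2,000 per well and preincubated 5hr; qHTS format with compounds delivered in DMSO.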

[12] = qHTS assay to identify small molecule antagonists of the farnesoid-X-receptor (FXR) signaling pathway - cell viability counter screen (AID 743221; active = well fitted cell-killing curve with a large enough effect in the repeat runs, not every such curve was filed as active; inconclusive = weak or mixed curves, or effect the other way; inactive = no such curve, though single readings can be large or run the other way; also: nearly all actives have a fitted effect of over 50% in size); conditions: FXR-bla HEK293T viability, CellTiter-Glo luminescence, 16 h; activity change, negative = cytotoxicity: at 62.6 µM (top of the series) unless noted
How it was run: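 Cytotoxicity counter screen run in the FXR-bla reporter wells: HEK 293T cells exposed to compound with 50 uM (final) chenodeoxycholic acid for 16 h, 37 C, then viability measured by CellTiter-Glo luminescence after 30 min, room temperature.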

[13] = qHTS assay to identify small molecule agonists or antagonists of the thyroid stimulating hormone receptor (TSHR) signaling pathway - wild type cell line counter screen (AID 1259384; calls by dose curve); conditions: HEK293 wild type, cAMP HTRF counter-screen; cAMP activity change: at 92.4 µM (top of the series), stronger effect = higher value unless noted
How it was run: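 Counter screen in untransfected Hek293: compounds (15-point titration, triplicate) plus phosphodiesterase inhibitor Ro20-1724 added after 18 h plating; 30 min RT. Intracellular cAMP via competitive d2/cryptate immunoassay, 1 h incubation.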

[14] = target: Androgen receptor (Homo sapiens) (UniProt P10275); assay: qHTS assay to identify small molecule agonists of the androgen receptor (AR) signaling pathway in the presence of an antagonist (AID 1259381; calls by dose curve; also: potency is read from the fitted curve at half-maximal effect; nearly all actives have a fitted effect of over 15% in size)
How it was run: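 Test compounds at 15 concentrations were incubated for 16hr with MDA-kb2 reporter cells in presence of 3.0uM nilutamide (final). Signal: ONE-Glo luciferase luminescence.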

[15] = qHTS assay to test for compound auto fluorescence at 460 nm (blue) in HepG2 cell free culture (AID 720685)
How it was run: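 Compound (23 nL) or DMSO pinned into cell-free MEM with 10% FBS; blue fluorescence read at 405/460 nm excitation/emission, expressed as auto-fluorescence equivalency to triamterene.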

[16] = qHTS assay to identify small molecule agonists of the estrogen related receptor (ERR) signaling pathway from Tox21 library (AID 1224849; calls by dose curve; also: nearly all actives have a fitted effect of over 15% in size); conditions: ERR reporter cell line, ONE-Glo luciferase, 18 h; at 92.4 µM (top of the series) unless noted
How it was run: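 Screening used an NTP-provided ERR luciferase cell line. Compounds in DMSO were added 6 h after seeding and left 18 h at 37 C before a 30 min ONE-Glo step and luminescence reading.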

Aromatase (Homo sapiens) = Aromatase (Homo sapiens) (UniProt P11511); assay: qHTS assay to identify aromatase inhibitors (AID 743083); also: nearly all actives have a fitted effect of over 55% in size
[17] = A CellTox Green Cytotoxicity Assay to monitor cytotoxicity in HepG2 cells - 16 hour (AID 1224876); also: nearly all actives have a fitted effect of over 45% in size
How it was run: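 Using 1536-well format, dye-containing HepG2 suspension was seeded, allowed 5 h at 37 C/5% CO2, dosed by pintool with compounds, positive and negative controls, and imaged for fluorescence across 40 h.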

[18] = qHTS assay to test for compound auto fluorescence at 460 nm (blue) in HepG2 cells (AID 720687); also: potency is read from the fitted curve at half-maximal effect
How it was run: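 Blue-channel autofluorescence (Ex/Em 405/460 nm, triamterene-equivalent) was measured after 1 hr compound exposure at 37 C, 5% CO2. Cells were HepG2, plated overnight at 37 C in MEM plus 10% FBS.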

[19] = qHTS assay for small molecules that induce genotoxicity in human embryonic kidney cells expressing luciferase-tagged ATAD5 (AID 651632); also: nearly all actives have a fitted effect of over 15% in size
How it was run: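 Luminescent reporter readout, HEK293T ATAD5-luc line: 16 hr drug exposure (37C, 5% CO2) followed by Amplite, 30 min RT.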
Tags tell the direction and shape of the fitted curve or compound fluorescence and quenching.

UniProt P11511, sequence (P11511 whole entry, looked up): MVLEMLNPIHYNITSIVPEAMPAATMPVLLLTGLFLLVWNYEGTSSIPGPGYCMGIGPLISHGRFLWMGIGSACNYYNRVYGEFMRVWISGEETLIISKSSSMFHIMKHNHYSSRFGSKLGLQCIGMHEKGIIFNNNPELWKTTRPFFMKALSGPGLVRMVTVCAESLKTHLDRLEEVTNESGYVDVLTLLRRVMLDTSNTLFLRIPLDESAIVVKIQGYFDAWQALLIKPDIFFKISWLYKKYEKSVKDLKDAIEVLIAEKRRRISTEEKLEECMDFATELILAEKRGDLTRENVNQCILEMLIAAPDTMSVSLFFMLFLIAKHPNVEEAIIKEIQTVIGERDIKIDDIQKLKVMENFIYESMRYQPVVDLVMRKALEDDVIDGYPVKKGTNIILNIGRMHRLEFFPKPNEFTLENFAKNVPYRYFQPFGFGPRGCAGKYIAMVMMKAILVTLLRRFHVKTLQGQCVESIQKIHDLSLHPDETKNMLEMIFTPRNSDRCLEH
UniProt P10275, sequence (P10275 whole entry, looked up): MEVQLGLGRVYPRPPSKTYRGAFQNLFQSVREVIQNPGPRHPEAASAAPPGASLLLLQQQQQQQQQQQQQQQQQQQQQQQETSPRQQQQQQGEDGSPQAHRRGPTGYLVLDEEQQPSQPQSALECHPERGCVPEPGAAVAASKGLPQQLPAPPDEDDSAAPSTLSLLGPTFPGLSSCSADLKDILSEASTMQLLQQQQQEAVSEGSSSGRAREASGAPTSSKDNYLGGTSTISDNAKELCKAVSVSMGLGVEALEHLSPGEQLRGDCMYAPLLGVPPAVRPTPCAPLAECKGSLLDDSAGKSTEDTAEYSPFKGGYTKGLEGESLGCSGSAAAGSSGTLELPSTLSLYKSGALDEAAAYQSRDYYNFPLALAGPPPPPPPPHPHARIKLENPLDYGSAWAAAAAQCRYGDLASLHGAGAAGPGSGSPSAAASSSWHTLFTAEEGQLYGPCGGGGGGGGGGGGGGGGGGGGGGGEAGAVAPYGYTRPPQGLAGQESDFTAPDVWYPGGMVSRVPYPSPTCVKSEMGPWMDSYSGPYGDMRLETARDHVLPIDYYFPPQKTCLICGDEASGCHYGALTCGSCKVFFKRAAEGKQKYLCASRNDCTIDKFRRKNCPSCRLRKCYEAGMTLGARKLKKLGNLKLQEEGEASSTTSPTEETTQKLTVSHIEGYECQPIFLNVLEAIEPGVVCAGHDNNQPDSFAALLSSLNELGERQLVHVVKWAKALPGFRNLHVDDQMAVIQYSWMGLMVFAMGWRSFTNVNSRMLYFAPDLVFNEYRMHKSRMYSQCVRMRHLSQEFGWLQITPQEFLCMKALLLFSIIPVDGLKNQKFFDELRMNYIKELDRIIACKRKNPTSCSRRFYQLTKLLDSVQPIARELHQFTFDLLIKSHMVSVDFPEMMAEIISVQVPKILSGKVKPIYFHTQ
UniProt Q9R1A7, sequence (Q9R1A7 whole entry, looked up): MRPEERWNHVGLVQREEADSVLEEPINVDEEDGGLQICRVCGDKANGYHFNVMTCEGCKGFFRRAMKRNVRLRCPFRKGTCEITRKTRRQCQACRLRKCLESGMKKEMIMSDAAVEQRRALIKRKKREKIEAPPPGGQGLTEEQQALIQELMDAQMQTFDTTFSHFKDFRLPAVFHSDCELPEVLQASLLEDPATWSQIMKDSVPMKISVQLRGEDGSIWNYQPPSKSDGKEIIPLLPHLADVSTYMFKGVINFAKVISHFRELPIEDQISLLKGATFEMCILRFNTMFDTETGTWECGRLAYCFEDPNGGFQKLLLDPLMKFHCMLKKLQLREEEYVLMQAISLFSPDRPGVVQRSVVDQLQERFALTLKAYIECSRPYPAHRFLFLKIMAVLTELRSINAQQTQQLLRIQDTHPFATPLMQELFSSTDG
UniProt P34981, sequence (P34981 whole entry, looked up): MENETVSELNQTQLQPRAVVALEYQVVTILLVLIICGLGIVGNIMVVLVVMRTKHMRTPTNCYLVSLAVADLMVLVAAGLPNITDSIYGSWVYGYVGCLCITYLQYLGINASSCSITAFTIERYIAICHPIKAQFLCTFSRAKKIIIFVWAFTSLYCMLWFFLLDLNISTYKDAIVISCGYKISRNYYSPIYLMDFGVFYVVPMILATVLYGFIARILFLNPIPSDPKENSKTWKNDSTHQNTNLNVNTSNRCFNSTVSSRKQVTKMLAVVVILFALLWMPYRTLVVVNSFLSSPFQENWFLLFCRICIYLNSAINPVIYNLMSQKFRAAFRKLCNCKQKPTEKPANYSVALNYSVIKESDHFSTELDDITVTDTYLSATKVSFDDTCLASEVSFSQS
UniProt P03372, sequence (P03372 whole entry, looked up): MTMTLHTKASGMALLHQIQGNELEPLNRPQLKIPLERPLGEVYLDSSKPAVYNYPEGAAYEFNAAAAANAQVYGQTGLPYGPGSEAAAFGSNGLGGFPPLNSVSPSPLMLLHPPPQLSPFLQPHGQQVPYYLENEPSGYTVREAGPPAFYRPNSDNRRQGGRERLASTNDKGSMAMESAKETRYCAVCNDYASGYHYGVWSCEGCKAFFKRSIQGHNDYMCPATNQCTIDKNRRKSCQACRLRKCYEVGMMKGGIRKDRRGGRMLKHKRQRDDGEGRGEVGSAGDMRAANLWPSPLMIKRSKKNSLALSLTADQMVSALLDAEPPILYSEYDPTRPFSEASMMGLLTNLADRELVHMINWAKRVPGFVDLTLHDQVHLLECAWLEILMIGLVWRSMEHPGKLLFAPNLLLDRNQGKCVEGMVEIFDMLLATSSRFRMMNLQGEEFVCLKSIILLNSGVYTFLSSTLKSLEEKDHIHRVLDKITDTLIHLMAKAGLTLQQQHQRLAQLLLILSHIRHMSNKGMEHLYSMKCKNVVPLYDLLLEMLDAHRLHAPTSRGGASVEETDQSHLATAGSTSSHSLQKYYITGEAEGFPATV

Structure (SMILES): O=C1c2ccccc2S(=O)(=O)N1CCCCN1CCN(c2ncccn2)CC1
- Potency [1]: inconclusive: 14.1 µM [activator, single point]
- Potency [2]: inconclusive: 31.6 µM [activator, single point]

Structure (SMILES): COc1ccc(C(C)=O)cc1
- Potency [3]: inactive

Structure (SMILES): CCC(CO)(CO)COCC(CC)(CO)CO
- Potency [3]: inactive

Structure (SMILES): CCCC(=O)C(CC)Sc1ccoc1C (stereo not given)
- Potency [4]: inconclusive: 21.9 µM [cytotoxic, single point]

Structure (SMILES): CC(CSC(=O)c1ccccc1)C(=O)N1C[C@@H](Sc2ccccc2)C[C@H]1C(=O)O (stereo not given in full)
- Potency [5]: inconclusive: 5.62 µM [fluorescent, partial curve, poor fit]
- Potency [6]: inconclusive: 16.4 µM [activator, single point]

Structure (SMILES): CS(=O)(=O)c1ccc([C@@H](CC2CCCC2)C(=O)Nc2cnccn2)cc1Cl
- Potency [7]: inconclusive: 56.2 µM [rising, partial curve, poor fit]

Structure (SMILES): CCCCNCC
- Potency [8]: inactive
- Potency [9]: inactive

Structure (SMILES): CC(C)(C)OC=O
- Potency [5]: inactive

Structure (SMILES): O=[N+]([O-])c1ccccc1C(F)(F)F
- Potency [10]: active: 59.8 µM

Structure (SMILES): COc1nc(N)nc2c1ncn2[C@@H]1O[C@H](CO)[C@@H](O)[C@@H]1O
- Potency [11]: inconclusive: 22.4 µM [activator, partial curve]

Structure (SMILES): COC(/C=C(\C)CCC=C(C)C)OC
- Potency [12]: inactive
- Potency [13]: inactive

Structure (SMILES): CCO[Si](C)(C)OCC
- Potency [14]: inconclusive: 3.86 µM [rising, partial curve]

Structure (SMILES): COc1ccc2cc1Oc1cc3c(cc1OC)CC[N+](C)(C)[C@H]3Cc1ccc(cc1)Oc1c(OC)c(OC)cc3c1[C@@H](C2)[N+](C)(C)CC3
- Potency [15]: inactive
- Potency [12]: inactive

Structure (SMILES): CC(C)(C)c1n[nH]c(=O)n(N)c1=O
- activity change, positive = activation [16]: inactive: -7.06%

Structure (SMILES): CC1(C)C(=O)N(Cl)C(=O)N1Cl
- Potency (Aromatase (Homo sapiens)): inactive
- Potency [9]: inactive

Structure (SMILES): C1COCO1
- Potency [17]: inactive

Structure (SMILES): O=C1OC(=O)c2c(Cl)c(Cl)c(Cl)c(Cl)c21
- Potency [18]: inconclusive: 12.6 µM [fluorescent, single point]

Structure (SMILES): NCCc1ccn[nH]1
- Potency [4]: inactive
- Potency [14]: inconclusive: 33.5 µM [rising, single point]
- Potency [1]: inconclusive: 0.316 µM [activator, full curve, poor fit]

Structure (SMILES): CN1C(CCl)Nc2cc(Cl)c(S(N)(=O)=O)cc2S1(=O)=O (stereo not given)
- Potency [7]: inactive

Structure (SMILES): NC(=O)c1ccc([N+](=O)[O-])cc1Cl
- Potency [19]: inactive

Structure (SMILES): Nc1ccc(S(=O)(=O)Nc2ccnn2-c2ccccc2)cc1
- cAMP activity change [13]: inactive: 3.46% [at 18.9 µM, stronger effect = higher value]

Structure (SMILES): CCNC(=O)C1CC(C)CCC1C(C)C (stereo not given)
- activity change, positive = activation [16]: inactive: -8.38%

Structure (SMILES): CCOC(=O)c1cccc(N)c1
- Potency [11]: inconclusive: 28.2 µM [activator, partial curve, poor fit]
- Potency [2]: inconclusive: 15.8 µM [activator, partial curve, poor fit]

Structure (SMILES): Nc1cc(C(Cl)=C(Cl)Cl)c(S(N)(=O)=O)cc1S(N)(=O)=O
- Potency (Aromatase (Homo sapiens)): inactive

Structure (SMILES): OCC1(CO)COCOC1
- Potency [19]: inactive

Structure (SMILES): O=C(O)CCSCCC(=O)O
- Potency [19]: inactive
